Experimental data published in PubChem BioAssay AID485297 (National Center for Advancing Translational Sciences (NCATS), 2010).
The campaign covered roughly 320,000 compounds. About 9,100 (2.8%) were called active. This list was built around the results that the source calls inconclusive (neither active nor inactive); the mix of calls is not that of the screen. Calls follow the shape of the dose curve; as a rule, active = well fitted activation curve with a large enough effect; inconclusive = small, poorly fitted or top-dose-only effect; inactive = no such curve, though single readings can be large or run the other way. Potencies of inconclusive entries are left out as doubtful fits.

Experiment: qHTS Assay for Rab9 Promoter Activators; also: nearly all actives have a fitted effect of over 60% in size; as to activation, negative = inhibition: % of control where 0% means no effect
Conditions: Huh7 Rab9 promoter-luciferase reporter, luminescence, 24 h; series mostly up to 9.22 µM; activation, negative = inhibition: at the top concentration
Summary of the method: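 Huh7 cells stably carrying a Rab9 promoter-luciferase reporter, 1500 cells per well in OP-MEM I with 10% FBS, treated with compound 24 hours at 37C. Luciferase activity read by luminescence after 10 minutes with Amplite reagent.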
Potency is read from the fitted curve at half-maximal effect; tags tell the direction and shape of the fitted curve.

| Structure (SMILES) | Potency | activation, negative = inhibition |
| --- | --- | --- |
| Cc1ccc(/C=C/C(=O)Nc2ccc(N(C)C)cc2)o1 | inconclusive [activator, single point] |  |
| Cc1nc(SCc2ccccc2F)c2cnn(-c3ccccc3)c2n1 | inconclusive [activator, single point] |  |
| O=C(N/N=C/c1cccc(Oc2ccccc2)c1)c1cccc(Br)c1 |  | inactive: 15.3% |
| CCn1c(C)nc2cc(C(=O)N/N=C/c3ccc(N4CCOCC4)cc3)ccc21 |  | inactive: 2.13% |
| C1CCc2c(nc3nnnn3c2N2CCOCC2)C1 |  | inactive: 2.68% |
| Cn1ccnc1SCC(=O)Nc1ccc2c(c1)OCO2 | inconclusive [activator, partial curve, poor fit] |  |
| COC(=O)c1ccc2c(c1)C(=O)/C(=C/c1ccc(O)cc1)O2 | inconclusive [activator, single point] |  |
| Brc1ccc(CSc2nnc3ccccn23)cc1 | inconclusive [activator, single point] |  |
| COc1ccc(OC)c(CC(NC(C)=O)C(=O)NC2CCN(c3cc(C)nc4ncnn34)CC2)c1 (stereo not drawn) |  | inactive: -7.35% |
| Cc1nn(-c2ccc(N3CCCCC3)nn2)c(C)c1CCC(=O)Nc1ccccc1F | inconclusive [activator, single point] |  |
| Cc1c([N+](=O)[O-])c(C/C=N/O)nn1C |  | inactive: -8.8% |
| CCOC(=O)Cc1cc(=O)n2[nH]c(-c3ccc(Cl)cc3)cc2n1 |  | inactive: 0.0086% |
| O=C(/C=C/c1cn(-c2ccccc2)nc1-c1ccccc1)Nc1ccc(C(=O)O)cc1 | inconclusive [activator, single point] |  |
| O=C(COc1ccc(Cl)cc1Cl)NNC(=O)c1cccnc1 |  | inactive: 8.5% |
| Cc1ccc(NC(=O)N(C)c2ccccc2)cc1 |  | inactive: 26% |
| CCOc1cccc(C(=O)Nc2nnc(-c3cccs3)s2)c1 | inconclusive [activator, single point] |  |
| Cc1nc2ccc(NC(=O)N3CCCCC3)cc2s1 | inconclusive [activator, single point] |  |
| COc1ccc(-c2ccc(SCC(=O)Nc3nnc(C)s3)nn2)cc1 | inconclusive [activator, partial curve] |  |
| CC1CCOC(c2coc3ccccc3c2=O)O1 (stereo not drawn) | inconclusive [activator, partial curve] |  |
| CC(=O)Nc1ccc(Nc2nc(-c3cc4ccccc4oc3=O)cs2)cc1 | inconclusive [activator, single point] |  |
| O=C(NCCN1CCOCC1)c1ccc(CS(=O)(=O)c2ccc(Cl)cc2)o1 | inconclusive [activator, single point] |  |
| CN(CCC#N)C(=O)COC(=O)c1c2c(nc3ccccc13)/C(=C/c1ccco1)CC2 | inconclusive [activator, single point] |  |
| NC(=O)COC(=O)[C@H](Cc1c[nH]c2ccccc12)NC(=O)c1ccc(F)cc1 |  | inactive: 3.02% |
| Cc1ccc2nc(NC(=O)c3ccc(OCC4CCCO4)cc3)sc2c1 (stereo not drawn) | inconclusive [activator, single point] |  |
| C/C(=N/NC(=O)c1ccoc1C)c1ccc(NC(=O)c2ccncc2)cc1 | inconclusive [activator, single point] |  |
| CN(C)c1ccc(/C=C(/NC(=O)c2ccccc2Cl)C(=O)NCCN2CCOCC2)cc1 |  | inactive: 2.47% |

| Structure (SMILES) | Potency | activation, negative = inhibition |
| --- | --- | --- |
| COC(=O)c1[nH]c2ccccc2c1CN1CCOCC1 |  | inactive: -0.445% |
| Cn1cc([N+](=O)[O-])c(C(=O)Nc2ccc(-c3nc4ccccc4[nH]3)cc2)n1 | inconclusive [activator, partial curve] |  |
| Cc1[nH]c2ccc(C(=O)NCc3ccccn3)cc2c1C | inconclusive [activator, single point] |  |
| O=C(/C=C/c1ccc2c(c1)OCO2)NCC1CCCO1 (stereo not drawn) | inconclusive [activator, single point] |  |
| CCOC(=O)N1CCN(C(=O)Cn2cc3c(n2)CCCC3)CC1 |  | inactive: -2.32% |
| CN(Cc1ccsc1)C(=O)Cn1cc(Br)ccc1=O | inconclusive [activator, partial curve] |  |
| Cc1ccc(NC(=O)C(=O)NCCCN2CCCC2=O)cc1 | active: 1.41 µM |  |
| Cc1cc(C)c2[nH]c(C(=O)Nc3ccc4c(c3)OCO4)cc2c1 | inconclusive [activator, partial curve] |  |
| CC(C)c1ccc(CNNC(=O)c2ccccc2)cc1 | inconclusive [activator, partial curve] |  |
| COc1ccc(-c2nnc(C3CCN(S(=O)(=O)c4ccccc4)CC3)o2)cc1 |  | inactive: 0.395% |
| Cc1cc(N)n(-c2cc(C)c3ccccc3n2)n1 | inconclusive [activator, single point] |  |
| COc1ccc(C(=O)/C=C/c2ccccc2)c(O)c1 | inconclusive [activator, single point] |  |
| Cc1cccc(OCCCC(=O)NC2CCCCC2)c1 |  | inactive: 5.66% |
| COc1ccc(CN2CCC(=O)N([C@H](CO)CC(C)C)CC2)cc1 |  | inactive: -0.809% |
| Cc1ccsc1C(=O)N/N=C/C=C/c1ccccc1[N+](=O)[O-] | inconclusive [activator, single point] |  |
| CN(C)c1ccc(/C=N\NC(=O)c2cccc3cc[nH]c23)cc1 | inconclusive [activator, partial curve] |  |
| CCOc1ccc2nc(SC3CC(=O)N(c4ccccc4)C3=O)sc2c1 (stereo not drawn) | inconclusive [activator, partial curve] |  |
| COc1cccc(NC(=O)CCc2ccccc2)c1 | inconclusive [activator, partial curve] |  |
| COc1ccccc1CN=c1c([N+](=O)[O-])nn(-c2ccc3c(c2)OCCO3)n1O | inconclusive [activator, partial curve] |  |
| COc1ccc(-c2onc(C)c2-c2cscn2)c(O)c1 |  | inactive: 1.96% |
| CCc1ccc(NC(=O)c2cccnc2)cc1 | inconclusive [activator, full curve] |  |
| Cc1ccc(NC(=O)c2ccc3c(c2)OCCO3)cc1C | active: 0.316 µM |  |
| Cc1ccc(S(=O)(=O)N(C)C)cc1NC(=O)COC(=O)c1c(-c2ccccc2)noc1C |  | inactive: -0.289% |
| O=C(Nc1cccc2nsnc12)c1ccc2c(c1)OCO2 | inconclusive [activator, single point] |  |
| CCCC(=O)Nc1cccc(NC(=O)c2ccc3c(c2)OCO3)c1 |  | inactive: 4.11% |
| COc1ccc(C(=O)/C=C2\Sc3ccccc3N2C)cc1 | active: 0.891 µM |  |

| Structure (SMILES) | Potency | activation, negative = inhibition |
| --- | --- | --- |
| C=CCOc1ccc(/C=N/Nc2ccccn2)cc1OC | inconclusive [activator, single point] |  |
| O=C(Nc1ccc(Cl)c(Cl)c1)c1ccc(Cl)c(Cl)c1 | active: 3.55 µM |  |
| COc1ccc(C(=O)c2sc(Nc3ccccc3F)nc2N)cc1 | active: 2.24 µM |  |
| COCc1c(C(=O)Nc2ccc3nc(N4CCOCC4)sc3c2)oc2ccccc12 |  | inactive: -5.18% |
| COc1ccc(-n2c(=S)[nH]c3cc(C(=O)N4CCN(c5ccccc5)CC4)ccc3c2=O)c(OC)c1 |  | inactive: -2.55% |
| c1cncc(-c2noc(-c3ccco3)n2)c1 | active: 3.98 µM |  |
| COc1ccc(NC(=S)Nc2cc(C)[nH]n2)cc1Cl | inconclusive [activator, single point] |  |
| Cc1cc(C(=O)COC(=O)C(C)NC(N)=O)c(C)n1Cc1ccco1 (stereo not drawn) |  | inactive: 28.4% |
| CCCc1cc2c(=O)c(-c3nc4ccccc4s3)c(COCC(=O)O)oc2cc1O | inconclusive [activator, single point] |  |
| Oc1ccccc1C1Nc2cccc3cccc(c23)N1 | inconclusive [activator, single point] |  |
| Cc1cccc(NC(=O)C(=O)NNC(=O)c2ccc(C(C)(C)C)cc2)c1 |  | inactive: 20.9% |
| COC(=O)c1ccccc1SCC(=O)Nc1ccc(N2CCOCC2)cc1 | inconclusive [activator, partial curve] |  |
| CC1(C)Cc2c(C#N)c(SCc3ccccc3)nc(N3CCOCC3)c2CO1 |  | inactive: -8.35% |
| CCOc1ccc(-c2cc(C(=O)N3CCCC3)c3ccccc3n2)cc1 | active: 1.41 µM |  |
| N#C/C(=C\c1cccnc1)c1nc2c(s1)CCCC2 | active: 3.98 µM |  |
| CCc1ccc(-c2csc(NC(=O)Oc3ccccc3)n2)cc1 | inconclusive [activator, partial curve] |  |
| CN(C)/C=C/C(=O)c1cnc(-c2ccccn2)s1 | active: 1.58 µM |  |
| Cc1cc(C)nc(Nc2n[nH]c(-c3ccccc3Cl)n2)n1 | inconclusive [activator, single point] |  |
| Nc1ccccc1SCC(=O)Nc1ccc2c(c1)OCO2 | active: 3.98 µM |  |
| COc1cc([N+](=O)[O-])cc(/C=N/NC(=O)c2cncc(Br)c2)c1O |  | inactive: -2.76% |
| Cc1cc(-c2ccccc2)nc(N/N=C/c2ccccc2)n1 | inconclusive [activator, single point] |  |
| Cc1cccc(C(=O)NCC(c2ccc(F)cc2)N2CCOCC2)c1 (stereo not drawn) |  | inactive: -1.55% |
| COc1ccc(OCc2cc(C(=O)NCC(C)Oc3cccnc3)no2)c(Cl)c1 (stereo not drawn) | inconclusive [activator, partial curve] |  |
| O=C(CCSc1nnc(-c2ccccc2)o1)N1CCOCC1 |  | inactive: 3.07% |
| Cc1ccc(C)c(OCc2cc(C(=O)NC3CCOC(C)(C)C3)no2)c1 (stereo not drawn) | inconclusive [activator, partial curve] |  |
| COC(=O)c1cccc(NC(=O)c2cnoc2C)c1 | inconclusive [activator, single point] |  |
